# Source: PubChem BioAssay AID624417 (National Center for Advancing Translational Sciences (NCATS), 2012)
# “And” between values parts separate entries of the source, which are not always exact repeats. Equal values may be shown once. Out of some 410,000 compounds screened, about 6,400 (1.6%) were called active. Inconclusive results, whose numbers are uncertain, are shown with a selection of clear calls. The call rests on the fitted dose curve; in most records, active means well fitted inhibition curve with a large enough effect; inconclusive means small, poorly fitted or top-dose-only effect; inactive means no such curve, though single readings can be large or run the other way. Potencies of inconclusive entries are doubtful fits and often do not repeat.
# Target: Glucagon-like peptide 1 receptor (Homo sapiens) (UniProt P43220)
# UniProt P43220, sequence (P43220 whole entry, looked up): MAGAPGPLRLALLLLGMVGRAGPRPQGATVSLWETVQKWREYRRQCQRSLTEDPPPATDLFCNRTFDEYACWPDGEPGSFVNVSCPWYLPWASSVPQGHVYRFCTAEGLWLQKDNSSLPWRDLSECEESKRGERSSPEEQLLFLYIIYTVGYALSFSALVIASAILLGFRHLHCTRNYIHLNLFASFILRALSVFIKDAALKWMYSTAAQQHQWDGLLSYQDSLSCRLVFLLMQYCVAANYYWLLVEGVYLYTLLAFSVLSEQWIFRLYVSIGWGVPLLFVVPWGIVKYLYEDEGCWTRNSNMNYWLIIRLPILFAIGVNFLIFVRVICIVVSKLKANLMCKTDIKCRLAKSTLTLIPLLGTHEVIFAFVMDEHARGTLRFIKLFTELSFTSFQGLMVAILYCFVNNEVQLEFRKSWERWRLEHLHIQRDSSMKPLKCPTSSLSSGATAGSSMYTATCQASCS
# Experiment: qHTS of GLP-1 Receptor Inverse Agonists (Inhibition Mode); further: nearly all actives have a fitted effect of over 55% in size
# Conditions: HEK293 GLP-1R CRE-luciferase, luminescence, 24 h, GLP-1R form is constitutively active; activity change, negative = inhibition: at 38.3 µM (top of the series) unless noted
# Summary of the method: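 Using stably transfected HEK293 (constitutively active GLP-1R, cAMP-luciferase reporter), compounds were incubated 24 hr and luciferase measured by luminescence.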
# On the % scale 0 is the no-effect control and ±100 the full control effect; potency means the concentration at half of the fitted maximal effect; tags describe the fitted curve by direction and shape.
SMILES,Potency,"activity change, negative = inhibition"
CCCN(Cc1ccccc1)C(=S)NC(=O)c1ccccc1[N+](=O)[O-],"inconclusive: 2 µM [inhibitor, full curve, poor fit]",
CCc1ccc(CNCc2c(C(=O)O)n(Cc3cccc(F)c3)c3cc(OC)ccc23)cc1,"inconclusive: 15.8 µM [inhibitor, single point]",
CC(C)(C)c1ccccc1NC(=O)Cn1c(=O)cnc2ccccc21,inactive,
N#Cc1nc(COc2ccccc2F)oc1NCCc1ccccc1,"inconclusive: 10 µM [inhibitor, partial curve, poor fit]",
C=CCOC(=O)C1=C(C)NC(=O)NC1c1ccc(O)cc1 (centres undefined),inactive,
O=C(Nc1ccc(Cl)c(Cl)c1)Nc1nc(-c2ccccc2)cs1,"inconclusive: 2 µM [inhibitor, full curve, poor fit]",
COc1ccc(C2c3c(oc4ccc(F)cc4c3=O)C(=O)N2Cc2ccc3c(c2)OCO3)cc1 (centres undefined),inactive,
CCN(Cc1cccs1)C(=O)CN1C(=O)NC2(CCCc3ccccc32)C1=O (centres undefined),"inconclusive: 10 µM [inhibitor, single point]",
Cc1ccc2[nH]c3c(=O)n(CC(=O)N4CCN(C)CC4)ncc3c2c1,inactive,
COc1ccc(-n2c(C)cc(C(=O)COc3ccc(C)nc3[N+](=O)[O-])c2C)cc1,"inconclusive: 0.501 µM [inhibitor, full curve, poor fit]",
COCC1CCN(C(=O)c2cc(COc3ccccc3SC)on2)C1 (centres undefined),inactive,
Cc1cc(/C=N/NC(N)=S)c(O)c(/C=N/NC(N)=S)c1,inactive,
O=C(NC1CCCC1)C1CC(c2ccc(F)cc2)=NO1 (centres undefined),inactive,
O=C(NC(=S)Nc1cccc2cc(O)ccc12)c1ccccc1Br,"inconclusive: 11.2 µM [inhibitor, single point]",
CCN=c1scc(-c2ccc3c(c2)NC(=O)CO3)n1N=C1CCCC1,"inconclusive: 7.94 µM [inhibitor, partial curve, poor fit] and inconclusive: 17.8 µM [inhibitor, partial curve, poor fit]",
COc1ccc(NC(=O)c2cc(Cl)ccc2Cl)c([N+](=O)[O-])c1,inactive,
Cc1ccc(-n2cc(C(=O)c3ccccc3O)cn2)cc1,"inconclusive: 1 µM [inhibitor, full curve, poor fit]",
O=C(NCc1ccccc1)c1cc(C2COCCN2C(=O)C2CC2)on1 (centres undefined),inactive,
COc1ccccc1N(C)S(=O)(=O)c1ccc(C(=O)Nc2nccs2)cc1,"inconclusive: 11.2 µM [inhibitor, single point]",
COc1ccc(Cl)cc1NC(=O)CN(C)C(=O)CCCc1c[nH]c2ccccc12,"inconclusive: 7.94 µM [inhibitor, partial curve, poor fit]",
Clc1cccc(CN2CCc3c([nH]c4ccccc34)C2)c1Cl,"inconclusive: 6.31 µM [inhibitor, partial curve, poor fit]",
COc1ccc(NC(=O)Cn2nnc(-c3ccccc3NC(=O)C3CC3)n2)cc1,"inconclusive: 2.51 µM [inhibitor, full curve, poor fit]",
Cc1ccccc1C(=O)NC(=S)Nc1ccccc1N1CCCC1,"inconclusive: 7.94 µM [inhibitor, partial curve, poor fit]",

SMILES,Potency,"activity change, negative = inhibition"
Cc1ccc(NC(=O)CN(C)C(=O)Cc2ccc3c(c2)CCC3)cc1,"inconclusive: 10 µM [inhibitor, partial curve]",
Cc1ccc(-n2nc(CO)c(C(=O)NCc3ccccn3)n2)cc1C,inactive,
CN(c1ncnc2onc(-c3cccc(Cl)c3)c12)C1CCCCC1,"inconclusive: 28.2 µM [inhibitor, single point]",
COc1ccc(OC)c(-c2csc(NC(=O)c3ccc(F)cc3)n2)c1,active: 10 µM,
Cc1cccc(CNC(=O)Cn2nc(C)n3c(cc4cc(F)ccc43)c2=O)c1,inactive,
C=CCc1ccccc1OCC(=O)NNC(=S)NCc1ccccc1,"inconclusive: 8.91 µM [inhibitor, partial curve]",
CCN(CC)CCSc1nc2ccccc2n1Cc1ccccc1,"inconclusive: 12.6 µM [inhibitor, single point]",
CCOC(=O)c1cnc2ccc(OC)cc2c1NCCc1ccccc1,inactive,
CCOc1ccc(S(=O)(=O)NCCC(=O)NCCc2ccc(C(C)C)cc2)cc1,"inconclusive: 28.2 µM [inhibitor, single point]",
O=C(NCc1ccccc1)c1sc(=S)n2c1[nH]c(=O)c1ccccc12,inactive,
O=[N+]([O-])c1cccc(-c2noc(COc3ccccc3)n2)c1,inactive,
N#Cc1ccc(C(=O)NC(=S)NC2CCCCC2)cc1,"inconclusive: 28.2 µM [inhibitor, single point]",
CC(=O)N1N=C(c2ccc3ccccc3c2)OC1(C)C,"inconclusive: 28.2 µM [inhibitor, single point]",
CC(C)(C)c1ccc(OCCNC(=O)Cc2ccc(F)cc2)cc1,"inconclusive: 8.91 µM [inhibitor, partial curve, poor fit]",
CC(=O)Nc1nc2ccccc2n1Cc1ccccc1Cl,"inconclusive: 11.2 µM [inhibitor, single point]",
COc1ccc(NC(=O)CCn2cc(C)c3ccccc32)cc1,,inconclusive: -83.9% [inhibitor]
N#Cc1c(NC(=O)C2CC(Cl)=CCC2C(=O)O)sc2c1CCCCC2 (centres undefined),"inconclusive: 28.2 µM [inhibitor, single point]",
CCOC(=O)N1CCN(c2c(NCCCN(CC)c3cccc(C)c3)c(=O)c2=O)CC1,"inconclusive: 2.51 µM [inhibitor, partial curve, poor fit]",
Cc1cccc(OC(C)C(=O)Nc2ccc(S(=O)(=O)N3CCCC3)cc2)c1 (centres undefined),"inconclusive: 14.1 µM [inhibitor, single point]",
O=C1CC(N2CCN(C(c3ccccc3)c3ccccc3)CC2)C(=O)N1 (centres undefined),"inconclusive: 11.2 µM [inhibitor, single point]",
O=C(NCc1ccco1)c1ccc(COc2ccccc2Cl)cc1,"inconclusive: 28.2 µM [inhibitor, single point]",
Cc1cccc(C(=O)N[C@H](C(=O)Nc2ccc(C)c(S(=O)(=O)N3CCOCC3)c2)C(C)C)c1,"inconclusive: 3.55 µM [inhibitor, partial curve]",
CCc1ccc(-n2nc(C)c3c(C)cc(=O)n(CC(=O)N4CCCc5ccccc54)c32)cc1,inactive,

SMILES,Potency,"activity change, negative = inhibition"
CCS(=O)(=O)N1CCN(C(C)CCc2ccccc2)CC1 (centres undefined),inactive,
COc1ccc(CN2CCC(C(=O)c3ccc(F)cc3)CC2)cc1,"inconclusive: 15.8 µM [inhibitor, partial curve, poor fit]",
O=C(c1cccc(S(=O)(=O)N2CCCCC2)c1)N(CCc1ccccc1)Cc1ccccc1,"inconclusive: 11.2 µM [inhibitor, partial curve, poor fit]",
Clc1ccc(/C(Cc2nc3ccccc3[nH]2)=N\Nc2ccccc2)cc1,"inconclusive: 11.2 µM [inhibitor, partial curve, poor fit]",
COc1cc(Cl)c(C)cc1NC(=O)CSc1nnc(-c2ccco2)n1CC(C)C,inactive,
Cc1ccc(NC(=O)CSc2nc3ccccc3c(=O)n2CCCN2CCCCC2)cc1C,"inconclusive: 20 µM [inhibitor, single point]",
Nc1nc(Nc2ccccc2F)sc1C(=O)c1ccc(Cl)cc1,"inconclusive: 25.1 µM [inhibitor, single point]",
Clc1ccc(-c2nsc(N3CCOCC3)n2)c(Cl)c1,"inconclusive: 10 µM [inhibitor, single point]",
COc1cc2sc(-c3ccc(S(C)(=O)=O)cc3)c(C(=O)NCc3ccc(C)o3)c2cc1OC,inactive,
CCc1cccc(NC(=O)C2CCN(C(=O)c3cnn(-c4ccccc4)c3-n3cccc3)CC2)c1,"inconclusive: 28.2 µM [inhibitor, single point]",
COc1ccc2[nH]c3c(C)c4cc[n+](C)cc4c(C)c3c2c1,"inconclusive: 5.62 µM [inhibitor, partial curve, poor fit]",
CN1CCN(C(=O)c2cc(COc3ccccc3)on2)[C@@H](c2ccccc2)C1,"inconclusive: 14.1 µM [inhibitor, single point]",
Cc1cc(C)nc(N/N=C/c2sccc2C)n1,inactive,
CCCCNC(=O)C(C)N(CCN(C)C)C(=O)CCCN1C(=O)NC(c2ccc(Cl)cc2)C(C(=O)OCc2ccccc2)=C1C (centres undefined),"inconclusive: 20 µM [inhibitor, single point]",
CCOC(=S)SCC(=O)N1CCc2cc(OC)ccc2C1C1C(=O)CCCC1=O (centres undefined),"inconclusive: 1.26 µM [inhibitor, full curve, poor fit]",
CC(=O)c1ccc(OCC(O)COc2ccc(C(C)=O)cc2)cc1,inactive,
COc1cc(NC(=O)CN2C(=O)CN(C)C2=O)c(C)cc1[N+](=O)[O-],inactive,
Cc1cc2c(cc1C)NC(=O)CC(c1ccccc1)=N2,inactive,
CN(C1=NC(=O)C(CC(=O)Nc2ccc(Br)cc2)S1)c1ccc(O)cc1 (centres undefined),"inconclusive: 12.6 µM [inhibitor, single point]",
Cc1ccccc1OCc1nc2ccccc2c(=O)n1/N=C/c1cccc([N+](=O)[O-])c1,inactive,
NC(=O)c1ccc(N2CCN(c3ccc(O)cc3)CC2)c([N+](=O)[O-])c1,inactive,
CCOC(=O)c1c(S(=O)(=O)N2CCCC(C(=O)NCc3ccc(Cl)cc3)C2)c(C)n(C)c1C (centres undefined),inactive,
Fc1cccc(-c2c(-c3ccccc3)ncc3cc(F)ccc23)c1,"inconclusive: 6.31 µM [inhibitor, partial curve, poor fit]",
